According to PubChem BioAssay AID624417 (National Center for Advancing Translational Sciences (NCATS), 2012):
Screen size: about 410,000 compounds; about 6,400 (1.6%) were called active. The inconclusive results got no clear call from the source; some entries with a clear call stand among them for comparison. Calls follow the shape of the dose curve; as a rule, active = well fitted inhibition curve with a large enough effect; inconclusive = small, poorly fitted or top-dose-only effect; inactive = no such curve, though single readings can be large or run the other way. Potencies of inconclusive entries are left out as doubtful fits.

molecular target: Glucagon-like peptide 1 receptor (Homo sapiens) (UniProt P43220); experiment: qHTS of GLP-1 Receptor Inverse Agonists (Inhibition Mode); conditions: HEK293 GLP-1R CRE-luciferase, luminescence, 24 h, GLP-1R form is constitutively active; activity change, negative = inhibition: at 38.3 µM (top of the series) unless noted; also: nearly all actives have a fitted effect of over 55% in size
UniProt P43220, sequence (P43220 whole entry, looked up): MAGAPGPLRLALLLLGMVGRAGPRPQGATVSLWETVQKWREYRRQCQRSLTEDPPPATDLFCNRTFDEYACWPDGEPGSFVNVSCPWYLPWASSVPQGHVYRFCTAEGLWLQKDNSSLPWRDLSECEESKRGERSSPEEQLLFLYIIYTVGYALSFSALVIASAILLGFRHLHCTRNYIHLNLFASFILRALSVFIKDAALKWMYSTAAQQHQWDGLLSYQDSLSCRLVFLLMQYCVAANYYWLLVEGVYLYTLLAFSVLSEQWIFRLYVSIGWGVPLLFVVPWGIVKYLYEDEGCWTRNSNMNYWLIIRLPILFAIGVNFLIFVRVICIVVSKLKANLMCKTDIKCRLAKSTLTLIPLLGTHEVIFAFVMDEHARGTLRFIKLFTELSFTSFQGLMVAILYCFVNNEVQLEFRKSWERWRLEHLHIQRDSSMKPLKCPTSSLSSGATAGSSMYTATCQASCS
Summary of the method: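 Luminescence readout: a drop in cAMP-driven luciferase signal flags inverse agonism at a constitutively active GLP-1R stably expressed in HEK293. Compound exposure lasted 24 hr at 37 deg C, 5% CO2.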
% is scaled to controls: 0 for no effect and ±100 for the full control effect; potency is read from the fitted curve at half-maximal effect; tags tell the direction and shape of the fitted curve.

SMILES | activity change, negative = inhibition | Potency
Cc1cccc(-n2c(-c3csc(C)c3C)n[nH]c2=S)c1 | inactive: -28.8% | 
CCCN(N=Nc1cccc([N+](=O)[O-])c1)c1cccc([N+](=O)[O-])c1 |  | inconclusive [inhibitor, single point]
CC(C)CC1N=C2c3ccccc3N=C(SCC(=O)NCCc3ccc(Cl)cc3)N2C1=O (centres undefined) | inactive: 18.4% | 
COc1ccc(C(=O)O)cc1NC(=S)NC(=O)C(c1ccccc1)c1ccccc1 |  | inconclusive [inhibitor, partial curve]
CC(C)(Oc1ccc(Br)cc1)C(=O)N1CCc2ccccc21 |  | inconclusive [inhibitor, single point]
CCc1ccc(S(=O)(=O)NCc2csc(-c3ccccc3)n2)s1 |  | inconclusive [inhibitor, partial curve, poor fit]
CCNC(=O)c1cnc2c(-c3ccccc3)c(C)nn2c1C | inactive: 0.589% | 
COc1ccc(-c2nc3cc(C)ccn3c2NC(=O)c2ccc(C)c(C)c2)cc1 |  | inconclusive [inhibitor, partial curve]
CN(C[C@H](Cc1ccccc1)N(C[C@H](Cc1cccc2ccccc12)N(CCc1ccccc1)N=O)N=O)N=O |  | inconclusive [inhibitor, partial curve, poor fit]
CC(C)CCn1c(=O)c2sccc2n2c(CCCC(=O)NC(C)C)nnc12 | inactive: 1.56% | 
CCn1c(SCC(=O)N2CCCCCC2)nc2ccccc2c1=O |  | inconclusive [inhibitor, single point]
COc1ccc(O)c(/C=N/NC(=O)c2ccc(CSc3nc(C)cc(C)n3)cc2)c1 |  | inconclusive [inhibitor, partial curve, poor fit]
COC(=O)c1ccc(NC(=O)c2snnc2-c2ccccc2)cc1 |  | inconclusive [inhibitor, single point]
CC(C)(C)c1ccc(Cn2nnc3c(=O)[nH]c(C4CCCN(C(=O)c5cccs5)C4)nc32)cc1 (centres undefined) |  | inconclusive [inhibitor, single point]
COc1ccc(-c2nc3c(C)cc(Br)cn3c2Cc2ccccc2)cc1OC |  | inconclusive [inhibitor, single point]
COc1cc(Cl)c(C)cc1NC(=O)c1cc2c(Cl)nc3ccc(C)cc3c2s1 | inactive: 13.2% | 
c1ccc(COc2cccc(-c3cc4nc(NCCN5CCOCC5)ccn4n3)c2)cc1 |  | inconclusive [inhibitor, single point]
O=C(COc1ccc(Br)cc1)NNC(=O)Cc1ccc(S(=O)(=O)N2CCOCC2)s1 |  | inconclusive [inhibitor, partial curve]
COc1ccc(CNCCCC(=O)Nc2c(Cl)ccc(C)c2Cl)cc1OC |  | inconclusive [inhibitor, partial curve]
Cc1ccc(Cc2c(-c3ccccc3)nc3cc(C)c(Br)c(C)n23)cc1 |  | inconclusive [inhibitor, partial curve, poor fit]

SMILES | activity change, negative = inhibition | Potency
COc1ccc(C2/C=C\CN(S(=O)(=O)c3ccc(C)cc3)CC(=O)N2Cc2cccc(F)c2)cc1 (centres undefined) |  | inconclusive [inhibitor, single point]
N#CC1=C(N)Oc2cc(N)ccc2C1c1cccnc1 (centres undefined) | inactive: 5.24% | 
COc1cc2c(cc1OC)C(=O)N1[C@H]3c4cc(Cl)ccc4OC[C@@H]3[C@H](c3ccccc3)[C@]1(C)C(=O)N2 |  | inconclusive [inhibitor, partial curve]
Cc1ccc(NS(=O)(=O)c2ccc3c(c2)CC(C)N3C(=O)C2CCC2)cc1Cl (centres undefined) |  | inconclusive [inhibitor, single point]
CCc1cccc(NC(=O)C2CCCN(S(=O)(=O)c3cccs3)C2)c1 (centres undefined) |  | active: 10 µM
O=C(CN1CCN(Cc2ccc(F)cc2Cl)C1=O)NCCc1ccccc1 |  | inconclusive [inhibitor, partial curve, poor fit]
CC(C)(C)c1ccc(OCCn2cc(C(=O)c3ccco3)c3ccccc32)cc1 |  | active: 7.94 µM
C[C@@H](C(=O)Nc1ccc(OC(F)F)c(Cl)c1)N1C(=O)C2CC=CCC2C1=O (some centres undefined) |  | inconclusive [inhibitor, single point]
CCN(CC(=O)NCc1ccc(F)cc1)Cc1nc2cc(Cl)ccc2c(=O)[nH]1 |  | inconclusive [inhibitor, partial curve, poor fit]
O=C(c1cc2ccccc2cc1O)N1CCN(c2ccccc2O)CC1 |  | inconclusive [inhibitor, single point]
Fc1cccc(Cc2c(-c3ccccc3)nc3c4ccccc4ccn23)c1 |  | inconclusive [inhibitor, partial curve, poor fit]
COc1cccc(CNS(=O)(=O)c2cc(Br)ccc2Br)c1 |  | inconclusive [inhibitor, partial curve]
CC(=O)NCCc1nc2cc(NC(=O)Nc3ccccc3)ccc2n1C |  | inconclusive [inhibitor, single point]
CCOC(=O)CN(C)S(=O)(=O)c1ccc(-c2cc(C(=O)OC)sc2C(F)(F)F)cc1 |  | inconclusive [inhibitor, single point]
COC(=O)C1=CN(c2cc(C)cc(C)c2)C=C(C(=O)OC)C1c1cccc(F)c1 |  | inconclusive [inhibitor, single point]
O=C(c1ccccc1)N1CCN(c2ccc([N+](=O)[O-])cc2-n2cccc2)CC1 |  | inconclusive [inhibitor, single point]
Cc1ccc(C2=CC(c3ccccc3F)n3c(nc4ccccc43)N2)cc1C (centres undefined) |  | inconclusive [inhibitor, single point]
COc1cccc(NC(=S)N(CCC(C)C)C(C)c2ccncc2)c1 (centres undefined) |  | inconclusive [inhibitor, single point]
COc1ccc2c(c1)[C@H]1[C@H](CO2)[C@H](c2ccccc2)[C@]2(C)C(=O)Nc3cc(Cl)ccc3C(=O)N12 |  | inconclusive [inhibitor, single point]
